We go through 34 molecules from the supplement of paper PMC6609913.

The test has as its system V-C8 + BRCA2 (BRCA2-proficient hamster cells). Kind of test: normalised cell viability (fraction of plate median); higher = more viable cells (less toxic). The conditions noted are these: 5 µM. A digest of the protocol:
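Cell viability was measured with a resazurin assay, normalised to the plate median (modified robust per cent of sample) and averaged over triplicate wells. Hamster V-C8 cells lacking BRCA2 and V-C8 cells with BRCA2 restored were seeded in 96-well plates. After 24 h, library drugs from 10 mM DMSO stocks were added at a final 5 μM in 100 μl medium and left for 3 days (screen 1) or 6 days (screen 2), with solvent-only wells alongside.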

Where a name gives a salt, the structure may show the parent alone. ± gives the standard deviation of the averaged measurements. Over roughly 1,300 compounds, “normalised cell viability” has its median near 1; the lowest 2% begin near 0.15. Some of the results follow.

As to `Cc1scc2c1N(C(=O)CN1CCN(C)CC1)c1ccccc1NC2=O` [Telenzepine dihydrochloride], the normalised cell viability was 0.996 ± 0.046 (treatment time: 3 days) and 1.07 ± 0.066 (treatment time: 6 days).
In the same order, the values of `Cn1c(=O)c2nc[nH]c2n(C)c1=O` [Theophylline monohydrate] are 0.884 ± 0.038 and 1.05 ± 0.12.
For `C=C1c2cccc(O)c2C(=O)C2=C(O)[C@]3(O)C(=O)C(C(N)=O)=C(O)[C@@H](N(C)C)[C@@H]3[C@@H](O)[C@H]12` [Methacycline hydrochloride], in that order: 1.14 ± 0.27 and 1.08 ± 0.029.
Take `c1ccc(C2CN3CCSC3=N2)cc1` (stereo not drawn) [Tetramisole hydrochloride]: the normalised cell viability is, setting by setting: (treatment time: 3 days) 1.01 ± 0.061; (treatment time: 6 days) 1.08 ± 0.021.
In the same order, the values of `CCOC(=O)c1ccc(OC(=O)CCCCCNC(=N)N)cc1` [Gabexate mesilate] are 0.943 ± 0.06 and 0.993 ± 0.04.
As to `CCCN[C@H]1CCc2nc(N)sc2C1` [Pramipexole], the normalised cell viability (treatment time: 3 days) turned out to be 0.9625 ± 0.0076 and the normalised cell viability (treatment time: 6 days) amounted to 0.987 ± 0.022.
For `Cc1cc(=O)oc2cc(O)ccc12` [Hymecromone], in that order: 1 ± 0.032 and 1.13 ± 0.042.
On to `COc1ccc(CN(CCN(C)C)c2ccccn2)cc1` [Pyrilamine maleate], for which the normalised cell viability (treatment time: 3 days) stood at 1.02 ± 0.064 and the normalised cell viability (treatment time: 6 days) was determined as 1 ± 0.082.
For `CCCNC(C)C(=O)Nc1ccccc1C` (stereo not drawn) [Prilocaine hydrochloride], the normalised cell viability came out at 1.04 ± 0.031 (treatment time: 3 days) and 1.04 ± 0.025 (treatment time: 6 days).
In the same order, the values of `CC(COc1ccccc1)N(CCCl)Cc1ccccc1` (stereo not drawn) [Phenoxybenzamine hydrochloride] are 0.991 ± 0.045 and 0.936 ± 0.015.
For `CC(=O)c1ccc(S(=O)(=O)NC(=O)NC2CCCCC2)cc1` [Acetohexamide], in that order: 1.22 ± 0.019 and 1.025 ± 0.0097.
For `CCCCC[C@H](O)/C=C/[C@@H]1[C@@H](C/C=C\CCCC(=O)O)[C@@H](O)C[C@H]1O` [Dinoprost trometamol], in that order: 1.09 ± 0.087 and 0.975 ± 0.06.
For `CCOC(=O)OC(C)OC(=O)[C@@H]1N2C(=O)[C@@H](NC(=O)[C@H](N)c3ccccc3)[C@H]2SC1(C)C` (stereo partly drawn) [Bacampicillin hydrochloride], the normalised cell viability runs as follows: (treatment time: 3 days) 1 ± 0.027; (treatment time: 6 days) 1.08 ± 0.096.
For `CCOC(=O)[C@H](CCc1ccccc1)N[C@H]1CCc2ccccc2N(CC(=O)O)C1=O` [Benazepril HCl], in that order: 1.03 ± 0.018 and 1.07 ± 0.029.
For `COC1=C(OC)C(=O)C(CCCCCCCCCCO)=C(C)C1=O` [Idebenone], in that order: 0.679 ± 0.047 and 0.699 ± 0.095.
As to `NCCCC[C@H](N[C@@H](CCc1ccccc1)C(=O)O)C(=O)N1CCC[C@H]1C(=O)O` [Lisinopril], the normalised cell viability reads like this: (treatment time: 3 days) 1.02 ± 0.025; (treatment time: 6 days) 1.07 ± 0.073.
For `CC(C)(C)NC[C@H](O)COc1nsnc1N1CCOCC1` [Timolol maleate salt], in that order: 1.06 ± 0.072 and 0.943 ± 0.042.
Take `O=C(Nc1cccc2c(=O)cc(-c3nnn[nH]3)oc12)c1ccc(OCCCCc2ccccc2)cc1` [Pranlukast]: the normalised cell viability (treatment time: 3 days) turned out to be 1.06 ± 0.05 and the normalised cell viability (treatment time: 6 days) was 1.08 ± 0.049.
In the same order, the values of `O=C(O)Cc1ccccc1Nc1c(Cl)cccc1Cl` [Diclofenac sodium] are 1.02 ± 0.081 and 0.9903 ± 0.0069.
In the same order, the values of `C[C@@H](c1ncncc1F)[C@](O)(Cn1cncn1)c1ccc(F)cc1F` [Voriconazole] are 0.963 ± 0.037 and 1.04 ± 0.11.
On to `CN1CCN(CCCN2c3ccccc3Sc3ccc(S(=O)(=O)N(C)C)cc32)CC1` [Thioproperazine dimesylate], for which the normalised cell viability is, setting by setting: (treatment time: 3 days) 0.884 ± 0.11; (treatment time: 6 days) 0.834 ± 0.039.
For `CC(=O)Oc1cc(C(F)(F)F)ccc1C(=O)O` [Triflusal], in that order: 0.996 ± 0.035 and 1.05 ± 0.011.
In the same order, the values of `O=c1[nH]cc(F)c(=O)[nH]1` [5-fluorouracil] are 0.384 ± 0.0096 and 0.358 ± 0.016.
As to `C[C@]12C=CC(=O)C=C1CC[C@@H]1[C@@H]2[C@@H](O)C[C@@]2(C)[C@H]1CC[C@]2(O)C(=O)CO` [Prednisolone], the normalised cell viability reads like this: (treatment time: 3 days) 1.07 ± 0.076; (treatment time: 6 days) 0.968 ± 0.044.
In the same order, the values of `CC(C)Cc1ccc([C@H](C)C(=O)O)cc1` [S-(+)-ibuprofen] are 1.01 ± 0.04 and 0.864 ± 0.076.
In the same order, the values of `CS(=O)(=O)c1ccc([C@@H](O)[C@@H](CO)NC(=O)C(Cl)Cl)cc1` [Thiamphenicol] are 0.9701 ± 0.0087 and 0.927 ± 0.02.
In the same order, the values of `NS(=O)(=O)c1cc2c(cc1Cl)N=C(CSCc1ccccc1)NS2(=O)=O` [Benzthiazide] are 0.988 ± 0.033 and 1.01 ± 0.13.
In the case of `O=C1C(CC[S+]([O-])c2ccccc2)C(=O)N(c2ccccc2)N1c1ccccc1` (stereo not drawn) [Sulfinpyrazone], the normalised cell viability reads like this: (treatment time: 3 days) 0.996 ± 0.025; (treatment time: 6 days) 0.978 ± 0.034.
For `CC(=O)O[C@]1(C(C)=O)CC[C@H]2[C@@H]3C=C(C)C4=CC(=O)CC[C@@H]4[C@H]3CC[C@@]21C` [Nomegestrol acetate], in that order: 1 ± 0.029 and 1.06 ± 0.063.
With `CO[C@@]1(NC(=O)C(C(=O)O)c2ccc(O)cc2)C(=O)N2C(C(=O)O)=C(CSc3nnnn3C)CO[C@@H]21` (stereo partly drawn) [Moxalactam disodium salt], the normalised cell viability was found to be 1.08 ± 0.038 (treatment time: 3 days) and 1.06 ± 0.032 (treatment time: 6 days).
Take `C#C[C@]1(O)CC[C@H]2[C@@H]3CCC4=CC(=O)CC[C@@H]4[C@H]3CC[C@@]21C` [Norethindrone]: the normalised cell viability runs as follows: (treatment time: 3 days) 0.951 ± 0.039; (treatment time: 6 days) 1 ± 0.054.
For `C#C[C@]1(OC(C)=O)CC[C@H]2[C@@H]3CCC4=C[C@@H](OC(C)=O)CC[C@@H]4[C@H]3CC[C@@]21C` [Ethynodiol diacetate], in that order: 1.1 ± 0.11 and 0.91 ± 0.16.
On to `Nc1ccc(S(=O)(=O)Nc2ncccn2)cc1` [Sulfadiazine], for which the normalised cell viability runs as follows: (treatment time: 3 days) 1.01 ± 0.068; (treatment time: 6 days) 1.024 ± 0.0048.
In the same order, the values of `Clc1ccccc1CN1CCc2sccc2C1` [Ticlopidine hydrochloride] are 1.09 ± 0.027 and 1.01 ± 0.068.
